Experimental data reported in article PMC13083723 (Patterns, 2026).
About 190 (3.5%) of roughly 5,400 compounds showed an effect of 50% or more. Some of the results follow.

These molecules were tested on Vero-E6 (assay: primary screen, phospholipidosis by LipidTOX staining; higher = more effect of the substance). Settings: 10 µM.
How it was run: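 Drug-induced phospholipidosis detected with HCS LipidTOX Red reagent in Vero-E6 cells. Compounds tested at 10 μM, with amiodarone (10 μM) as positive control and DMSO (0.1 v/v %) as vehicle.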
`CC(C)C[C@H](NC(=O)CNC(=O)[C@H](Cc1ccc(O)cc1)NC(=O)[C@H](CO)NC(=O)[C@H](Cc1c[nH]c2ccccc12)NC(=O)[C@H](Cc1c[nH]cn1)NC(=O)[C@@H]1CCC(=O)N1)C(=O)N[C@@H](CCCNC(=N)N)C(=O)N1CCC[C@H]1C(=O)NCC(N)=O` was tested, and the result_ITMP was 1.23%.
For `C[C@]1(COc2ccc(N3CCC(Oc4ccc(OC(F)(F)F)cc4)CC3)cc2)Cn2cc([N+](=O)[O-])nc2O1`, the result_ITMP was -2.16%.
`COc1ccc(NC(=O)c2ccc(-c3ccc(-c4noc(C)n4)cc3C)cc2)cc1N1CCN(C)CC1` was tested, and the result_ITMP was 142%.
`CNC(C)CC1CCCCC1` (centres unmarked) gave a result_ITMP of 6.1%.
`Cc1cnc(Nc2ccc(F)cc2Cl)nc1-c1c[nH]c(C(=O)N[C@H](CO)c2cccc(Cl)c2)c1` showed a result_ITMP of 37.4%.
With `NC(=O)C1=CN([C@@H]2O[C@H](COP(=O)(O)OP(=O)(O)OC[C@H]3O[C@@H](n4cnc5c(N)ncnc54)[C@H](OP(=O)(O)O)[C@@H]3O)[C@@H](O)[C@H]2O)C=CC1` the result_ITMP was -3.53%.
In the case of `CCCCNc1ccc(C(=O)OCCN(C)C)cc1`, the result_ITMP was 6.48%.
`CC(C)=CCC/C(C)=C/CC/C(C)=C/CSc1ccccc1C(=O)O` gave a result_ITMP of -2.01%.
`CO/N=C(\C(=O)N[C@@H]1C(=O)N2C(C(=O)[O-])=C(COC(N)=O)CS[C@H]12)c1ccco1` was tested, and the result_ITMP was -1.04%.
In the case of `CCCCCOC(=O)Nc1nc(=O)n([C@@H]2O[C@H](C)[C@@H](O)[C@H]2O)cc1F`, the result_ITMP was 1.25%.
With `CN[C@@H]1C(OC2[C@H](O[C@H]3[C@H](O)[C@@H](O)[C@H](NC(=N)N)[C@@H](O)[C@@H]3NC(=N)N)OC(C)[C@]2(O)CO)OC(CO)C(O)C1O` (some centres unmarked) the result_ITMP was -3.92%.
`c1cc(OCCN2CCCCC2)cc(-c2n[nH]c3ccc(-c4ncn[nH]4)cc23)c1` showed a result_ITMP of -0.52%.
`O=C(Cc1ccc(Cl)c(Cl)c1)N1CCCCC1CN1CCCC1` (centres unmarked) was tested, and the result_ITMP was 14.4%.
With `COc1ccc(N2CCOCC2)c2sc(NC(=O)N3CCC(C)(O)CC3)nc12` the result_ITMP was -0.64%.
In the case of `CCN(CC)CCO[C@H]1CC[C@@]2(C)C(=CC[C@@H]3[C@@H]2CC[C@]2(C)C(=O)CC[C@@H]32)C1`, the result_ITMP was 61%.
For `CN1CCOC(c2ccccc2)c2ccccc2C1` (centres unmarked), the result_ITMP was 2.33%.
In the case of `N=C(N)NCCCCN`, the result_ITMP was -1.75%.
With `CN1CCC(=C2c3ccccc3CCc3sccc32)CC1` the result_ITMP was 42.6%.
`CCc1cc(-c2n[nH]c(C)c2-c2ccc3c(c2)OCCO3)c(O)cc1O` gave a result_ITMP of -6.77%.
`C#CCOC(=O)C1=CCCN(C)C1` showed a result_ITMP of -0.86%.
With `COc1ncc(-c2ccc3nccc(-c4ccnnc4)c3c2)cc1NS(=O)(=O)c1ccc(F)cc1F` the result_ITMP was -1.24%.
For `CC(O)C(N)C(=O)O` (centres unmarked), the result_ITMP was -9.04%.
Work on `COc1ccc2cccc(N3CCN(CCNC(=O)c4ccc(F)cc4)CC3)c2c1` yielded a result_ITMP of 14%.
Molecule `CC1(C)CC[C@]2(C(=O)O)CC[C@]3(C)[C@H](C(=O)C=C4[C@@]5(C)C=C(C#N)C(=O)C(C)(C)[C@@H]5CC[C@]43C)[C@@H]2C1` has a result_ITMP of -1.94%.
With `C[C@@]1(O)[C@H](O)[C@@H](CO)O[C@H]1n1cnc2c(O)nc(N)nc21` the result_ITMP was 7.18%.
Molecule `Fc1ccc2c(CCNCc3cccc(OCC(F)(F)C(F)F)c3)c[nH]c2c1` has a result_ITMP of 10.9%.
Work on `O=C(OCCOCCO)c1ccccc1Nc1cccc(C(F)(F)F)c1` yielded a result_ITMP of -6.27%.
`Cc1cc(C)c2c(N)c(C(=O)NCc3ccc(Cl)cc3)sc2n1` gave a result_ITMP of -3.86%.
Work on `COc1ccc(Cl)cc1[C@]1(F)C(=O)Nc2cc(C(F)(F)F)ccc21` yielded a result_ITMP of -1.44%.
`NC(=O)OC[C@@H]1[C@H](NC(=O)/C(=N\OCC(=O)[O-])c2csc(N)n2)C(=O)N1S(=O)(=O)[O-]` gave a result_ITMP of 0.72%.
Molecule `CC(C)(C)CCN1C[C@@H]2[C@@H](CNC(=O)c3cc(Cl)cc(Cl)c3)[C@@H]2C1` has a result_ITMP of 20.6%.
Work on `CC(=O)Oc1ccccc1C(=O)Oc1cccc(CO[N+](=O)[O-])c1` yielded a result_ITMP of 0.5%.
`O=[N+]([O-])c1ccc2nc(COCc3nc4ccc([N+](=O)[O-])cc4[nH]3)[nH]c2c1` gave a result_ITMP of -6.5%.
Molecule `C[N+](C)(C)CCOP(=O)([O-])OC[C@H](O)CO` has a result_ITMP of 0.5%.
Molecule `CC(=O)Nc1cccc(O)c1` has a result_ITMP of -2.86%.
For `Cc1cnc(C(=O)O)c[n+]1[O-]`, the result_ITMP was -1.43%.
`O=C(c1cncc(Br)c1)N1CCC(N2CCCC2)CC1` gave a result_ITMP of 1.83%.
Work on `O=C(Nc1ccc([N+](=O)[O-])cc1O)Nc1ccccc1Br` yielded a result_ITMP of -0.92%.
In the case of `O=c1c(O)c(-c2ccc(O)c(O)c2)oc2cc(O)cc(O)c12`, the result_ITMP was -1.58%.
Work on `CCOC(=O)C1=C(O)C(=O)N(Cc2ccccc2)C1` yielded a result_ITMP of -2.54%.
`CN(C(=O)c1c(O)c2ccccc2n(C)c1=O)c1ccccc1` was tested, and the result_ITMP was -2.25%.
With `Cc1cc(N2CCN([C@@H]3CN[C@H](C(=O)N4CCSC4)C3)CC2)n(-c2ccccc2)n1` the result_ITMP was 0.49%.
`CC1(O)C(O)C(CO)OC1n1ccc(N)nc1=O` (centres unmarked) showed a result_ITMP of -5.94%.
`Nc1cc2c3ccccc3ccc2c2ccccc12` gave a result_ITMP of -0.54%.
`COc1ccc(CN2CCN(C(c3ccc(F)cc3)c3ccc(F)cc3)CC2)c(OC)c1OC` was tested, and the result_ITMP was 33.9%.
In the case of `CC(C)(C)c1ccc2cc(C#N)c(C#N)cc2c1`, the result_ITMP was -5.37%.
With `CCc1ccc(C(=O)C(C)CN2CCCCC2)cc1` (centres unmarked) the result_ITMP was 4.16%.
With `FCc1ccc(OCCOc2ccc(Cl)cc2Cl)c(Cl)n1` the result_ITMP was -4.79%.
Molecule `Cc1ccc(OCCSc2ncccn2)c(Br)c1` has a result_ITMP of -4.09%.
For `COc1ccc(C(=O)c2ccccc2O)c(O)c1`, the result_ITMP was -3.03%.
`C[C@@H]1COCCN1c1cc(=O)n2c(n1)N(Cc1cncc(Cl)c1)[C@H](C(F)(F)F)CC2` was tested, and the result_ITMP was -16.3%.
Molecule `COc1ccc2c(c1)C(C(=O)N(Cc1ccc(N(C)C)cc1)c1ccc(C(C)C)cc1)CCC2` (centres unmarked) has a result_ITMP of -2.28%.
Molecule `COc1c(C)c(C(=O)c2ccc(N)c(C(=O)[O-])c2)n2ccccc12` has a result_ITMP of -3.94%.
For `CCN1CCN(Cc2ccc(Nc3ncc(F)c(-c4cc(F)c5nc(C)n(C(C)C)c5c4)n3)nc2)CC1`, the result_ITMP was 76.7%.
In the case of `COCCc1ccc(OCC(O)CNC(C)C)cc1` (centres unmarked), the result_ITMP was -1.47%.
With `CCC(=O)O[C@@H]1CC(=O)O[C@H](C)C/C=C/C=C/[C@H](O)[C@H](C)C[C@H](CC=O)[C@H](O[C@@H]2O[C@H](C)[C@@H](O[C@H]3C[C@@](C)(O)[C@@H](OC(=O)CC)[C@H](C)O3)[C@H](N(C)C)[C@H]2O)[C@H]1OC` the result_ITMP was 1.99%.
In the case of `Cc1c(S(=O)(=O)[O-])oc2c1C(=O)C(=O)c1c-2ccc2c1CCCC2(C)C`, the result_ITMP was -1.56%.
`CN1CCC[C@@H]1CCO[C@](C)(c1ccccc1)c1ccc(Cl)cc1` was tested, and the result_ITMP was 90.6%.
With `CCOc1ccc(NC(C)=O)cc1` the result_ITMP was -5.26%.
In the case of `CCOC(=O)CN1CCN(C(=O)/C=C/c2cc(OC)c(OC)c(OC)c2)CC1`, the result_ITMP was -4.44%.
Work on `OC[C@H]1O[C@@H](O[C@@H]2[C@H](O)[C@@H](O)[C@H](O[C@H]3[C@H](O)[C@@H](O)C(O)O[C@@H]3CO)O[C@@H]2CO)[C@H](O)[C@@H](O)[C@H]1O` (some centres unmarked) yielded a result_ITMP of 3.95%.
For `O=C(c1ccc(OCCCc2c[nH]cn2)cc1)C1CC1`, the result_ITMP was 13%.
In the case of `CC(C)[C@H](N)C(=O)OCC(CO)OCn1cnc2c(=O)[nH]c(N)nc21` (some centres unmarked), the result_ITMP was -5.92%.
`c1ccc(C2CC2)c(OCC2=NCCN2)c1` was tested, and the result_ITMP was 4.05%.
For `C/C=C(\C(=C\C)c1ccc(O)cc1)c1ccc(O)cc1`, the result_ITMP was 0.7%.
`CC(C(=O)O)c1ccc(C(=O)c2cccs2)cc1` (centres unmarked) gave a result_ITMP of -0.4%.
With `COc1cc2ncnc(Nc3ccc(F)c(Cl)c3)c2cc1OCCCN1CCOCC1` the result_ITMP was -1.05%.
Molecule `O=C(NC(Cc1c[nH]c2ccccc12)C(=O)[O-])c1ccc(Cl)cc1` (centres unmarked) has a result_ITMP of -0.44%.
Work on `CN1CCN(c2nc(C3=C(c4c[nH]c5ccccc45)C(=O)NC3=O)c3ccccc3n2)CC1` yielded a result_ITMP of 22.1%.
`CCCCC[C@H](O)/C=C/[C@H]1[C@H](O)CC(=O)[C@@H]1CCCCCCC(=O)O` gave a result_ITMP of -7.26%.
For `NC1=N[C@@](c2cccc(-c3cncnc3)c2)(c2ccnc(C(F)F)c2)c2cccc(F)c21`, the result_ITMP was 4.11%.
With `CC(=O)Nc1ccc(C(=O)O)cc1` the result_ITMP was -3.42%.
With `Cc1ccccc1C(c1ccccc1C)N1C2CCC1CC(O)(c1ccccc1)C2` (centres unmarked) the result_ITMP was -2.82%.
`O=C(O)c1cccnc1C(=O)O` showed a result_ITMP of -3.37%.
Molecule `C(#Cc1nc2ncccc2nc1OCCN1CCCC1)c1ccccc1` has a result_ITMP of 8.41%.
Work on `CCN1CCC[C@H]1CNC(=O)c1c(O)c(Cl)cc(Cl)c1OC` yielded a result_ITMP of -1.14%.
In the case of `O=C(O)c1ccccc1`, the result_ITMP was -7.76%.
Molecule `CN[C@@H](C)C(=O)N[C@H](C(=O)N1CCC[C@H]1C(=O)Nc1sc(-c2ncco2)nc1-c1ccccc1)C1CCCCC1` has a result_ITMP of 1.46%.
`CC[C@@H]([C@H](C)O)n1ncn(-c2ccc(N3CCN(c4ccc(OC[C@@H]5CO[C@@](Cn6cncn6)(c6ccc(F)cc6F)C5)cc4)CC3)cc2)c1=O` gave a result_ITMP of 19.4%.
`NCc1ccc(S(N)(=O)=O)cc1` was tested, and the result_ITMP was -2.52%.
With `CNC(C)(C)Cc1ccccc1` the result_ITMP was -6.23%.
In the case of `CCOP(=S)(OCC)Oc1cc(C)nc(C(C)C)n1`, the result_ITMP was 2.48%.
`O=c1[nH]nc(Sc2ncc([N+](=O)[O-])s2)n1-c1ccc2c(c1)OCCO2` gave a result_ITMP of -5.34%.
With `CC(C)[C@@H](CS(=O)(=O)C(C)C)N1C(=O)[C@@](C)(CC(=O)O)C[C@H](c2cccc(Cl)c2)[C@H]1c1ccc(Cl)cc1` the result_ITMP was -0.58%.
Molecule `CCN(CCCOc1ccc2c(Nc3cc(CC(=O)Nc4cccc(F)c4)[nH]n3)ncnc2c1)CCOP(=O)(O)O` has a result_ITMP of 0.14%.
With `CC#C[C@@H](CC(=O)[O-])c1ccc(OCc2cccc(-c3ccc(C(F)(F)F)cc3)c2)cc1` the result_ITMP was 2.55%.
